# Measurements: PubChem BioAssay AID887 (National Center for Advancing Translational Sciences (NCATS), 2007)
# Out of some 74,000 compounds screened, about 1,100 (1.5%) were called active. This list was built around the results that the source calls inconclusive (neither active nor inactive); the mix of calls is not that of the screen. Calls follow the shape of the dose curve; as a rule, active = well fitted inhibition curve with a large enough effect; inconclusive = small, poorly fitted or top-dose-only effect; inactive = no such curve, though single readings can be large or run the other way. No potency is given beside an inconclusive call; the fits are too rough. A structure can be active in one record and inactive in another.
# Molecular target: Polyunsaturated fatty acid lipoxygenase ALOX15 (Homo sapiens) (UniProt P16050)
# Test: qHTS Assay for Inhibitors of 15-hLO (15-human lipoxygenase); also: nearly all actives have a fitted effect of over 55% in size
# Details: purified 15hLO-1, xylenol orange hydroperoxide absorbance; activity change, negative = inhibition: at 57.1 µM (top of the series) unless noted
# Procedure, shortened: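 40 nM 15hLO-1 + cpd, 15 min RT; start w/ 50 uM AA (final), 6 min RT; stop/detect w/ 200 uM XO + 300 uM Fe(II) in 50 mM H2SO4, 30 min; A573/A405. Buffer 25 mM Hepes pH 7.5, 0.01% Triton X-100. No-enzyme wells as negative control.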
# % is scaled to controls: 0 for no effect and ±100 for the full control effect; potency is read from the fitted curve at half-maximal effect; tags tell the direction and shape of the fitted curve.
# Sequence of UniProt P16050 (P16050 whole entry, looked up): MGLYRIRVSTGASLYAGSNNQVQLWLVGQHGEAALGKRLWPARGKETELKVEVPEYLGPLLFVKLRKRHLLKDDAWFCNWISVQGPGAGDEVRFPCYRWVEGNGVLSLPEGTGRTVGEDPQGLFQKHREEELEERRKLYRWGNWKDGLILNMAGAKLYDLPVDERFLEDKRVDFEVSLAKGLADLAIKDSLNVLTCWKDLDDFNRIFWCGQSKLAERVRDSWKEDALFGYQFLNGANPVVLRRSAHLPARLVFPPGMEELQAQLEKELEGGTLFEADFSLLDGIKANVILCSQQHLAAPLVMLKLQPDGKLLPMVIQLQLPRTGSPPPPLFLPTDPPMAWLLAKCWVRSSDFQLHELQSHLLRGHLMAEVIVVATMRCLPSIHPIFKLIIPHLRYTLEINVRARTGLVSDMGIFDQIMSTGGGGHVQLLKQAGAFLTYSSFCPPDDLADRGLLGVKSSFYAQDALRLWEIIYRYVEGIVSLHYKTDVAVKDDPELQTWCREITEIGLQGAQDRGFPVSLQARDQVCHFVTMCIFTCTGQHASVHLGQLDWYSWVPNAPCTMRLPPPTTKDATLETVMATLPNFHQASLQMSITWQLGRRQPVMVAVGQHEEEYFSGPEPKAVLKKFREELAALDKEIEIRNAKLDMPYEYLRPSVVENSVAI
Structure (SMILES),Potency,"activity change, negative = inhibition"
CN(C)c1ccc(-c2ccc3ncnc(-n4ccnc4)c3c2)cc1,inactive,–
COc1ccc(CNC(=O)C(C)Cc2ccccc2)cc1O (configuration not stated),"inconclusive [inhibitor, single point]",–
CC(=O)N(OCc1ccccc1)[C@@H]1c2cc(C#N)ccc2OC(C)(C)[C@H]1O,"inconclusive [inhibitor, single point]",–
Cc1ccccc1NC(=O)Nc1cccs1,"inconclusive [inhibitor, partial curve]",–
CC(C)=CCC/C(C)=C/CO,active: 7.94 µM,–
CN(C1CCCCC1)S(=O)(=O)c1ccc(NC(=O)c2ccc(Br)o2)cc1,"inconclusive [inhibitor, single point]",–
COc1cccc(CN2CCCN(S(=O)(=O)c3ccc(Br)cc3)CC2)c1,"inconclusive [inhibitor, partial curve]",–
CCOC(=O)c1[nH]c2ccc(OC)cc2c1NC(=O)C(C)N1CCC2(CC1)OCCO2 (configuration not stated),inactive,–
Cc1c(C)c2c(c(C)c1O)CC[C@@](C)(C(=O)O)O2,inactive,–
Nc1nc(-c2ccc3c(c2)CCCC3)cs1,"inconclusive [inhibitor, partial curve]",–
Clc1ccccc1-c1nnc2sc(C3COc4ccccc4O3)nn12 (configuration not stated),"inconclusive [inhibitor, partial curve]",–
Cc1ccc(C2NC(=O)c3c(sc4c3CCN(C)C4)N2)s1 (configuration not stated),"inconclusive [inhibitor, partial curve]",–
O=c1c(-c2nc3ccccc3o2)c2oc3ccccc3n2c2ccccc12,inactive,–
CC1CN(CCC(=O)Nc2ccc3c(c2)CCC3)CC(C)O1 (configuration not stated),"inconclusive [inhibitor, partial curve, poor fit]",–
CCCCNc1nc(C)nc2c1nc(-c1ccccc1)n2C(C)CCCN(CC)CC (configuration not stated),"inconclusive [inhibitor, single point]",–
CC(C)CNC1=CC(=O)CC(c2ccco2)C1 (configuration not stated),active: 10 µM,–
O=C(Nc1ccc(-c2cn3ccsc3n2)cc1)C1CC1,inactive,–
CCCCn1c(SCC(=O)NCC2CCCO2)nc2ccc(N3CCOCC3)cc2c1=O (configuration not stated),active: 12.6 µM,–
COCC(=O)NCc1ccc2c(c1)cc(C)n2C,"inconclusive [inhibitor, single point]",–
COc1ccc(-n2c(=O)c(-c3ccc(Cl)cc3)nc3cnc(N4CCNCC4)nc32)cc1,inactive,–
CC1Cc2nc(SCC(=O)Nc3nccs3)n(C)c(=O)c2S1 (configuration not stated),"inconclusive [inhibitor, full curve, poor fit]",–
Cc1cccc(C#Cc2ccccc2)n1,"inconclusive [inhibitor, single point]",–
COc1ccc(-c2nc(NC(=O)C3CCN(c4nc5ccccc5o4)CC3)sc2C)cc1,"inconclusive [inhibitor, partial curve]",–
N[C@H](C(=O)O)c1cc(O)cc(O)c1,"inconclusive [inhibitor, single point]",–

Structure (SMILES),Potency,"activity change, negative = inhibition"
CC(CN1CCCCC1)OC(=O)c1ccc(Cl)cc1 (configuration not stated),"inconclusive [inhibitor, full curve, poor fit]",–
CC(C)(N)CO[C@H]1C[C@H]2CC[C@@]1(C)C2(C)C,–,inactive: 8.02% [at 11.4 µM]
O=C1C2C3CCCC3=C3CCCC3C2C(=O)N1c1ccc(F)cc1 (configuration not stated),active: 3.16 µM,–
COc1cc(C(=O)NCCc2nc3ccccc3n2C)cc(OC)c1OC,inactive,–
O=C(CN1c2cccc3cccc(c23)S1(=O)=O)N1CCOCC1,"inconclusive [inhibitor, partial curve]",–
O=C(Oc1ccc(-c2cnc3ccccc3n2)cc1)c1ccco1,"inconclusive [inhibitor, partial curve]",–
COc1ccc(CCC(=O)Nc2nc3c(s2)CN(C)CC3)cc1OC,"inconclusive [inhibitor, single point]",–
O=C(CCC(=O)OCC(F)(F)C(F)F)Nc1ccc(Cl)cc1,inactive,–
Cc1ccc(C2C3=C(CCCC3=O)Nc3[nH]c(=S)[nH]c(=O)c32)cc1 (configuration not stated),active: 20 µM,–
CC12C=C(/C=C/CCc3ccco3)C(C)(C1)C(CCc1ccco1)CC2=O (configuration not stated),"inconclusive [inhibitor, full curve, poor fit]",–
Cc1ccc(-n2c(SCC(=O)NCc3ccco3)nnc2-c2cccnc2)c(C)c1,"inconclusive [inhibitor, partial curve]",–
CC1CN(CC(=O)N2CCc3[nH]c4ccccc4c3C2)CC(C)O1 (configuration not stated),"inconclusive [inhibitor, partial curve]",–
Cc1ccc(/C=N/n2cnc3sc4c(c3c2=O)CCCC4)o1,"inconclusive [inhibitor, partial curve]",–
CCOC(=O)CCCc1sc(N)nc1-c1[nH]c(=O)[nH]c1C,"inconclusive [inhibitor, partial curve]",–
CC1=C(C)CS(=O)N(S(=O)(=O)c2ccc(Cl)cc2)C1 (configuration not stated),"inconclusive [inhibitor, partial curve]",–
CCOC(=O)c1c(NC(=O)CSc2nnc(C)s2)sc2c1CCN(C)C2,"inconclusive [inhibitor, single point]",–
CCOC(=O)c1nn(-c2ccccc2)c(=O)c2c(N)scc12,active: 5.01 µM,–
O=C(C1CCN(S(=O)(=O)c2cccc3cccnc23)CC1)N1CCN(c2ccc(Cl)cc2)CC1,"inconclusive [inhibitor, single point]",–
FC(F)(F)c1ccccc1-c1cncnc1Nc1ccccc1,"inconclusive [inhibitor, single point]",–
CO[C@@H]1/C=C\CC(=O)N2CCC[C@@H]2C(=O)OC[C@@H](C)C(=O)OC[C@H]1C,–,inactive: -0.655% [at 11.4 µM]
Cc1cc(-c2csc(N)n2)c(C)n1CCc1ccccc1,"inconclusive [inhibitor, partial curve]",–
COc1ccc(NC(=O)c2oc3ccccc3c2NC(=O)C2CC2)cc1,"inconclusive [inhibitor, partial curve, poor fit]",–
CC(C)c1[nH]nc2c1C(c1ccc(OC(=O)c3ccco3)cc1)C(C#N)=C(N)O2 (configuration not stated),"inconclusive [inhibitor, single point]",–
CCOC(=O)c1c(NC(=O)c2ccc(-n3cnnn3)cc2)sc2c1CCCC2,"inconclusive [inhibitor, full curve]",–

Structure (SMILES),Potency,"activity change, negative = inhibition"
CCS(=O)(=O)NCc1ccc2[nH]c3c(c2c1)CCCC3,active: 0.398 µM,–
CCCCn1c(SCC(=O)c2cc(OC)ccc2OC)nc2cc(S(N)(=O)=O)ccc21,inactive,–
Nc1ccc(-c2ccc(Nc3cc(S(=O)(=O)O)c(N)c4c3C(=O)c3ccccc3C4=O)cc2)c(S(=O)(=O)O)c1,"inconclusive [inhibitor, partial curve, poor fit]",–
CCCC1c2ccc(C)n2CCN1C(=O)Nc1ccccc1Cl (configuration not stated),"inconclusive [inhibitor, single point]",–
CC(=O)Nc1ccccc1-c1nc2ccc(C(=O)N3CCN(c4ccccc4)CC3)cc2[nH]c1=O,inactive,–
COc1cc(O)c2c(=O)cc(-c3ccccc3)oc2c1,inactive,–
CC(=O)NCCOc1ccc(C(=O)O)cc1,"inconclusive [inhibitor, single point]",–
CN(Cc1ccccc1)C(=O)CN(C1CCCCC1)S(C)(=O)=O,inactive,–
O=C(NCCO[N+](=O)[O-])c1cccnc1,"inconclusive [inhibitor, single point]",–
CO[C@@H]1COC(=O)[C@H](C)NC(=O)[C@@H](C)COC(=O)[C@H](C)NC(=O)C/C=C\[C@H]1C,–,inactive: 4.58% [at 11.4 µM]
O=C(NCCC1=CCCCC1)C1CCCN(S(=O)(=O)c2cccc3cccnc23)C1 (configuration not stated),active: 20 µM,–
COC(=O)[C@@]1(Cc2ccccc2)C=C[C@@H](C)N1C(=O)c1ccccc1,"inconclusive [inhibitor, single point]",–
CC1(C)Cc2ccccc2-c2nnc(SCC(=O)Nc3nc4ccccc4s3)n21,"inconclusive [inhibitor, full curve, poor fit]",–
Nc1nc(Nc2cccc(F)c2)nc2ccccc12,"inconclusive [inhibitor, single point]",–
CC1=C(/C=C\C(=O)O)C(C)(C)CCC1,–,inactive: -1.03% [at 11.4 µM]
Cc1cc2cc(CN3C(=O)c4ccccc4C3=O)ccc2n1C,"inconclusive [inhibitor, single point]",–
CC(C)(CO)NCc1ccccc1OCC(=O)Nc1ccccc1,"inconclusive [inhibitor, single point]",–
Cc1ccc(-n2c(N)c(C(=O)N3CCN(C)CC3)sc2=S)cc1,"inconclusive [inhibitor, partial curve]",–
O=C(CSc1nc(C2CCCCC2)n(-c2ccccc2)n1)NCCN1C(=O)CSC1=O,"inconclusive [inhibitor, full curve]",–
CCOC(=O)CCCCCCCCCCCCC1C=CCC1 (configuration not stated),active: 12.6 µM,–
O=S1(=O)[C@H]([C@H]2CC3c4ccccc4C2c2ccccc23)[C@@H](N2CCCCC2)[C@@H]1c1ccccc1,–,inactive: -23.4% [at 11.4 µM]
CC1(C)Cc2c(C#N)c(NC3CCCCC3)nc(-c3ccco3)c2CO1,inactive,–
Cc1ccc2nc3ccc(N4CCCC4)nn3c(=O)c2c1,active: 25.1 µM,–
C[C@@]1(C(=O)O)CCC[C@@H]1C(=O)O,–,inactive: 5.48% [at 11.4 µM]
